In the supplement of paper PMC8728848:
The list shows a part of the results.

Tests used:
Test in all cases: glycan array binding signal (z-score within array); higher = stronger binding
Details in all cases: glycan notation: IUPAC condensed, linker removed
[1] = target: Neu5Ac(a2-3)Gal(b1-4)[Fuc(a1-3)]GlcNAc(b1-3)Gal(b1-4)[Fuc(a1-3)]GlcNAc(b1-3)Gal(b1-4)[Fuc(a1-3)]GlcNAc
Procedure, shortened: (§1)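 Glycan array data came from 3228 arrays in the Consortium for Functional Glycomics database, and only arrays with an available protein sequence were kept. Glycan names were put into IUPAC-condensed notation, and columns mapping to the same glycan were averaged. The binding signal is a within-array Z-score, averaged across arrays of one protein sequence run at different concentrations or buffers and across linkers. A negative Z-score can be read as non-binding.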

[2] = target: Neu5Ac(a2-3)Gal(b1-4)[Fuc(a1-3)]GlcNAc(b1-6)[Gal(b1-3)]GalNAc
Procedure, shortened: as §1

[3] = target: Neu5Ac(a2-3)Gal(b1-4)[Fuc(a1-3)]GlcNAc(b1-6)[Neu5Ac(a2-3)Gal(b1-3)]GalNAc
Procedure, shortened: as §1

[4] = target: Neu5Ac(a2-3)Gal(b1-4)[Fuc(a1-3)]GlcNAc6S
Procedure, shortened: as §1

[5] = target: Neu5Ac(a2-3)Gal6S(b1-4)GlcNAc
Procedure, shortened: as §1

[6] = target: Neu5Ac(a2-3)Gal6S(b1-4)[Fuc(a1-3)]GlcNAc
Procedure, shortened: as §1

Neu5Ac(a2-3)GalNAc = target: Neu5Ac(a2-3)GalNAc
Procedure, shortened: as §1

[7] = target: Neu5Ac(a2-3)GalNAc(b1-4)GlcNAc
Procedure, shortened: as §1

[8] = target: Neu5Ac(a2-3)[GalNAc(b1-4)]Gal(b1-4)Glc
Procedure, shortened: as §1

[9] = target: Neu5Ac(a2-3)[GalNAc(b1-4)]Gal(b1-4)GlcNAc
Procedure, shortened: as §1

[10] = target: Neu5Ac(a2-3)[Neu5Ac(a2-6)]GalNAc
Procedure, shortened: as §1

Neu5Ac(a2-6)Gal = target: Neu5Ac(a2-6)Gal
Procedure, shortened: as §1

Neu5Ac(a2-6)Gal(b1-4)Glc = target: Neu5Ac(a2-6)Gal(b1-4)Glc
Procedure, shortened: as §1

[11] = target: Neu5Ac(a2-6)Gal(b1-4)GlcNAc
Procedure, shortened: as §1

[12] = target: Neu5Ac(a2-6)Gal(b1-4)GlcNAc(b1-2)Man(a1-3)Man(b1-4)GlcNAc(b1-4)GlcNAc
Procedure, shortened: as §1

[13] = target: Neu5Ac(a2-6)Gal(b1-4)GlcNAc(b1-2)Man(a1-3)[Gal(b1-4)GlcNAc(b1-2)Man(a1-6)]Man(b1-4)GlcNAc(b1-4)GlcNAc
Procedure, shortened: as §1

[14] = target: Neu5Ac(a2-6)Gal(b1-4)GlcNAc(b1-2)Man(a1-3)[GlcNAc(b1-2)Man(a1-6)]Man(b1-4)GlcNAc(b1-4)GlcNAc
Procedure, shortened: as §1

[15] = target: Neu5Ac(a2-6)Gal(b1-4)GlcNAc(b1-2)Man(a1-3)[GlcNAc(b1-2)Man(b1-4)GlcNAc(b1-2)Man(a1-6)]Man(b1-4)GlcNAc(b1-4)GlcNAc
Procedure, shortened: as §1

[16] = target: Neu5Ac(a2-6)Gal(b1-4)GlcNAc(b1-2)Man(a1-3)[Man(a1-6)]Man(b1-4)GlcNAc(b1-4)GlcNAc
Procedure, shortened: as §1

[17] = target: Neu5Ac(a2-6)Gal(b1-4)GlcNAc(b1-2)Man(a1-3)[Neu5Ac(a2-6)Gal(b1-4)GlcNAc(b1-2)Man(a1-6)]Man(b1-4)GlcNAc(b1-4)GlcNAc
Procedure, shortened: as §1

[18] = target: Neu5Ac(a2-6)Gal(b1-4)GlcNAc(b1-2)Man(a1-6)Man(b1-4)GlcNAc(b1-4)GlcNAc
Procedure, shortened: as §1

[19] = target: Neu5Ac(a2-6)Gal(b1-4)GlcNAc(b1-2)Man(a1-6)[Gal(b1-4)GlcNAc(b1-2)Man(a1-3)]Man(b1-4)GlcNAc(b1-4)GlcNAc
Procedure, shortened: as §1

[20] = target: Neu5Ac(a2-6)Gal(b1-4)GlcNAc(b1-2)Man(a1-6)[GlcNAc(b1-2)Man(a1-3)]Man(b1-4)GlcNAc(b1-4)GlcNAc
Procedure, shortened: as §1

[21] = target: Neu5Ac(a2-6)Gal(b1-4)GlcNAc(b1-2)Man(a1-6)[Man(a1-3)]Man(b1-4)GlcNAc(b1-4)GlcNAc
Procedure, shortened: as §1

[22] = target: Neu5Ac(a2-6)Gal(b1-4)GlcNAc(b1-3)Gal(b1-3)GlcNAc
Procedure, shortened: as §1

[23] = target: Neu5Ac(a2-6)Gal(b1-4)GlcNAc(b1-3)Gal(b1-4)GlcNAc
Procedure, shortened: as §1

[24] = target: Neu5Ac(a2-6)Gal(b1-4)GlcNAc(b1-3)Gal(b1-4)GlcNAc(b1-3)Gal(b1-4)GlcNAc
Procedure, shortened: as §1

B1: Sialidase (Vibrio cholerae), P37060 (protein)
chain: GAMALFDYNATGDTEFDSPAKQGWMQDNTNNGSGVLTNADGMPAWLVQGIGGRAQWTYSLSTNQHAQASSFGWRMTTEMKVLSGGMITNYYANGTQRVLPIISLDSSGNLVVEFEGQTGRTVLATGTAATEYHKFELVFLPGSNPSASFYFDGKLIRDNIQPTASKQNMIVWGNGSSNTDGVAAYRDIKFEIQGDALNGSMALFDYNATGDTEFDSPAKQGWMQDNTNNGSGVLTNADGMPAWLVQGIGGRAQWTYSLSTNQHAQASSFGWRMTTEMKVLSGGMITNYYANGTQRVLPIISLDSSGNLVVEFEGQTGRTVLATGTAATEYHKFELVFLPGSNPSASFYFDGKLIRDNIQPTASKQNMIVWGNGSSNTDGVAAYRDIKFEIQGDLQALGMALFDYNATGDTEFDSPAKQGWMQDNTNNGSGVLTNADGMPAWLVQGIGGRAQWTYSLSTNQHAQASSFGWRMTTEMKVLSGGMITNYYANGTQRVLPIISLDSSGNLVVEFEGQTGRTVLATGTAATEYHKFELVFLPGSNPSASFYFDGKLIRDNIQPTASKQNMIVWGNGSSNTDGVAAYRDIKFEIQGD
Q: What does the source list for B1?
A: glycan array binding signal (z-score) [1]: 1.7; glycan array binding signal (z-score) [2]: 0.504; glycan array binding signal (z-score) [3]: 0.955; glycan array binding signal (z-score) [4]: 1.37; glycan array binding signal (z-score) [5]: 6.38; glycan array binding signal (z-score) [6]: 1.23; glycan array binding signal (z-score) (Neu5Ac(a2-3)GalNAc): 1.32; glycan array binding signal (z-score) [7]: 0.704; glycan array binding signal (z-score) [8]: -0.052; glycan array binding signal (z-score) [9]: -0.021; glycan array binding signal (z-score) [10]: 0.757; glycan array binding signal (z-score) (Neu5Ac(a2-6)Gal): -0.247; glycan array binding signal (z-score) (Neu5Ac(a2-6)Gal(b1-4)Glc): -0.275; glycan array binding signal (z-score) [11]: -0.586; glycan array binding signal (z-score) [12]: 0.537; glycan array binding signal (z-score) [13]: 0.177; glycan array binding signal (z-score) [14]: 1.19; glycan array binding signal (z-score) [15]: 1.64; glycan array binding signal (z-score) [16]: 0.457; glycan array binding signal (z-score) [17]: 0.301; glycan array binding signal (z-score) [18]: 1.84; glycan array binding signal (z-score) [19]: 0.798; glycan array binding signal (z-score) [20]: 0.626; glycan array binding signal (z-score) [21]: 1.36; glycan array binding signal (z-score) [22]: -0.237; glycan array binding signal (z-score) [23]: -0.66; glycan array binding signal (z-score) [24]: 1.19
